The densities may have been worked out from excess volumes.
Test: xn = mol fraction of the nth substance listed
Conditions: 101 kPa

CC[n+]1ccn(C)c1.COS(=O)(=O)[O-] + CC(=O)O
mass density [kg/m3]
Conditions	x2 = 0	x2 = 0.1669	x2 = 0.3003	x2 = 0.5004	x2 = 0.6432	x2 = 0.7503	x2 = 0.8336	x2 = 0.9001	x2 = 0.9546	x2 = 0.9783
298.15 K	1286	1274.8	1263.3	1238.2	1213.2	1188.6	–	1130.6	1091.3	–
303.15 K	1282.5	1271.7	1259.7	1234.7	–	1184.1	–	1126.3	–	1063.8
308.15 K	1279.1	–	1256	1231	1204.9	1179.6	1153	1121.6	1082.1	1058.7
313.15 K	1275.7	1265.4	1252.5	–	1200.8	1175.1	1148.6	1117.5	1077.7	1053.8

CC[n+]1ccn(C)c1.COS(=O)(=O)[O-] + CCC(=O)O
mass density [kg/m3]
Conditions	x2 = 0	x2 = 0.1332	x2 = 0.2478	x2 = 0.4345	x2 = 0.5804	x2 = 0.6975	x2 = 0.7935	x2 = 0.8737	x2 = 0.9417	x2 = 0.9719
298.15 K	1286	1272.2	1257.1	1224.5	1192.6	1160.2	1125.1	1084.8	1038.9	–
303.15 K	1282.5	1269	1253.7	1221.1	1188.8	1155.9	1120.6	1080.4	1034.6	1009.4
308.15 K	1279.1	1265.9	1250.4	1217.7	1185	1151.5	1116	1076.1	1030.3	1004.8
313.15 K	1275.7	1262.8	1247.1	1214	1181	1147.6	1112	1071.5	1025.1	–

CC(=O)O + CC[n+]1ccn(C)c1.COS(=O)(=O)[O-]
x1 = 1
Conditions	mass density [kg/m3]
298.15 K	1044
303.15 K	1038.3
308.15 K	1032.7
313.15 K	1027

CCC(=O)O + CC[n+]1ccn(C)c1.COS(=O)(=O)[O-]
x1 = 1
Conditions	mass density [kg/m3]
303.15 K	982.8
308.15 K	977.5

Source: a compilation of properties of binary mixtures (doi:10.1016/j.molliq.2016.02.091)
